# Laboratory results published in ChEMBL document CHEMBL1201862, “PubChem BioAssay data set” (2004).
#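 Five concentrations, 48 hours, 96-well plates. GI50 marks 50% less growth.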 The source made the active and inactive calls. Rule as the data show it: active = GI50 up to about 1.1 µM and inactive = higher.
# Columns and labels:
# Assay in all cases: NCI-60 cell line screen, 48 h
# CCRF-CEM = test system: CCRF-CEM
# DLD-1 = test system: DLD-1
# DMS-273 = test system: DMS-273
# EKVX = test system: EKVX
# HCT-116 = test system: HCT-116
# HL-60 = test system: HL-60
# HOP-18 = test system: HOP-18
# HOP-92 = test system: HOP-92
# K562 = test system: K562
# KM-20L2 = test system: KM-20L2
# LXFL 529 = test system: LXFL 529
# MOLT-4 = test system: MOLT-4
# NCI-H522 = test system: NCI-H522
# OVCAR-3 = test system: OVCAR-3
# OVCAR-4 = test system: OVCAR-4
# OVCAR-5 = test system: OVCAR-5
# RPMI-8226 = test system: RPMI-8226
# RXF 631 = test system: RXF 631
# SK-MEL-2 = test system: SK-MEL-2
# SNB-75 = test system: SNB-75
# SNB-78 = test system: SNB-78
# SR = test system: SR
# TK-10 = test system: TK-10
# UO-31 = test system: UO-31
# XF498 = test system: XF498
smiles,measurement,setting,value
CCCCOC(=O)Oc1cc2c(c(OC)c1OC)-c1ccc(SC)c(=O)cc1[C@@H](NC(C)=O)CC2,GI50,CCRF-CEM,active: < 10 nM
same,GI50,DLD-1,active: < 10 nM
same,GI50,DMS-273,active: < 10 nM
same,GI50,EKVX,inactive: 84900 nM
same,GI50,HCT-116,active: < 10 nM
same,GI50,HL-60,active: < 10 nM
same,GI50,HOP-18,inactive: 17700 nM
same,GI50,HOP-92,active: < 10 nM
same,GI50,K562,active: < 10 nM
same,GI50,KM-20L2,active: < 10 nM
same,GI50,LXFL 529,active: < 10 nM
same,GI50,MOLT-4,active: < 10 nM
same,GI50,NCI-H522,active: < 10 nM
same,GI50,OVCAR-3,active: < 10 nM
same,GI50,OVCAR-4,inactive: 1220 nM
same,GI50,OVCAR-5,active: 578 nM
same,GI50,RPMI-8226,active: < 10 nM
same,GI50,RXF 631,active: 13.2 nM
same,GI50,SK-MEL-2,active: < 10 nM
same,GI50,SNB-75,active: < 10 nM
same,GI50,SNB-78,active: < 10 nM
same,GI50,SR,active: < 10 nM
same,GI50,TK-10,inactive: 20000 nM
same,GI50,UO-31,active: 661 nM
same,GI50,XF498,active: < 10 nM
